Source: the RNAGym collection of RNA variant scans (doi:10.7554/elife.90254)
Read counts are not given, so values of variants with three or more changes are uncertain.

B1: LINE1-mini (parent)
chain: GGCAGAGCUCAACACAGCGUGGCAAAGUGGCUGUGGCUAGACUGCC

Variants of: B1
Assay: self-cleavage, relative activity (ratio to wild type); higher = more cleavage; in vitro, sequencing; the parent is a self-cleaving ribozyme
A4U C8U G21C G35A gave a self-cleavage of 0.47.
For A4U C8U U20C C46U, the self-cleavage was 0.02.
Work on A4U C8U U34G yielded a self-cleavage of 0.04.
With A4U C10A A26U G29C the self-cleavage was 0.02.
Work on A4U C10A C23A A24C G30A G40A yielded a self-cleavage of 0.03.
Work on A4U C10G A16G C18G C46A yielded a self-cleavage of 0.03.
Variant A4U C10G C13U A14U has a self-cleavage of 0.05.
Work on A4U C10G C15A A39C yielded a self-cleavage of 0.03.
Work on A4U C10G C15U U20A G30U G33U yielded a self-cleavage of 0.02.
For A4U C10G C23U C31A G44C, the self-cleavage was 0.01.
With A4U C10G C42G the self-cleavage was 0.01.
A4U C10U A12G A25U gave a self-cleavage of 0.01.
In the case of A4U C10U C13U G35U C37A A39C, the self-cleavage is reported as 0.03.
A4U C13A A16U G21U A24U G29A U32G G35U showed a self-cleavage of 0.15.
In the case of A4U C13A A25C G30U C31A G33U C46G, the self-cleavage is reported as 0.03.
With A4U C13G A14G G22A the self-cleavage was 0.03.
For A4U C13G A14G G35A, the self-cleavage was 0.05.
In the case of A4U C13G A26C C45G, the self-cleavage is reported as 0.09.
Work on A4U C13G C18G yielded a self-cleavage of 0.05.
In the case of A4U C13G C23U, the self-cleavage is reported as 0.32.
A4U C13U A14C G29C G36U C37G gave a self-cleavage of 0.08.
In the case of A4U C13U G27C G29C C31A C42U, the self-cleavage is reported as 0.15.
In the case of A4U C13U U20A, the self-cleavage is reported as 0.02.
With A4U C15A A26G A39U the self-cleavage was 0.04.
A4U C15A G33A A39U G40C showed a self-cleavage of 0.01.
In the case of A4U C15A G35C C42U G44U C45U C46A, the self-cleavage is reported as 0.01.
A4U C15A U20A A41G G44C gave a self-cleavage of 0.01.
In the case of A4U C15G A16C G30U C37A A39U, the self-cleavage is reported as 0.1.
For A4U C15G G22A G35A, the self-cleavage was 0.02.
A4U C15G G29C G33C showed a self-cleavage of 0.29.
A4U C15U A16G G29A showed a self-cleavage of 0.01.
A4U C15U C23A G29U showed a self-cleavage of 0.1.
Variant A4U C15U U28C has a self-cleavage of 0.16.
Variant A4U C15U U32C has a self-cleavage of 0.1.
In the case of A4U C18A C31U G36U G40U, the self-cleavage is reported as 0.01.
A4U C18A U28A showed a self-cleavage of 0.44.
In the case of A4U C18A U43C, the self-cleavage is reported as 0.08.
For A4U C18G G19U A26U, the self-cleavage was 0.32.
A4U C18G G40A U43A gave a self-cleavage of 0.02.
Variant A4U C18G U28A has a self-cleavage of 0.07.
For A4U C18U G19C G29A A39C, the self-cleavage was 0.05.
For A4U C23A G35A, the self-cleavage was 0.04.
With A4U C23A U28A the self-cleavage was 0.19.
In the case of A4U C23G A24G G33A, the self-cleavage is reported as 0.02.
With A4U C23G G35C A39U the self-cleavage was 0.09.
A4U C23G G36C gave a self-cleavage of 0.1.
Work on A4U C23G G44U yielded a self-cleavage of 0.1.
In the case of A4U C23G U38C C46A, the self-cleavage is reported as 0.01.
With A4U C37U A39G the self-cleavage was 0.03.
For A4U G5A A6G U20A, the self-cleavage was 0.01.
In the case of A4U G5A A12U A26G, the self-cleavage is reported as 0.13.
In the case of A4U G5A C8A C46U, the self-cleavage is reported as 0.85.
For A4U G5A C10U G22U, the self-cleavage was 0.02.
In the case of A4U G5A C15G G29A, the self-cleavage is reported as 0.03.
A4U G5A C23U G29U G36C G44A showed a self-cleavage of 0.04.
For A4U G5A G7C C15U C18U U38G, the self-cleavage was 0.03.
For A4U G5A U20A, the self-cleavage was 0.03.
A4U G5C A11G G33A gave a self-cleavage of 0.05.
With A4U G5C A24G C42G the self-cleavage was 0.01.
In the case of A4U G5U C10U A16G G19A U34A G40U, the self-cleavage is reported as 0.01.
In the case of A4U G5U G7A, the self-cleavage is reported as 0.4.
A4U G5U G29U gave a self-cleavage of 0.02.
Variant A4U G5U G40U A41U C46U has a self-cleavage of 0.46.
A4U G7A A11G gave a self-cleavage of 0.03.
A4U G7A C13U U38A showed a self-cleavage of 0.09.
A4U G7A G19C showed a self-cleavage of 0.22.
A4U G7A U9G C42U gave a self-cleavage of 0.08.
In the case of A4U G7C A14C A41U, the self-cleavage is reported as 0.07.
Variant A4U G7C A16G G33U has a self-cleavage of 0.01.
A4U G7C C13U G17U G21C C23U showed a self-cleavage of 0.17.
Work on A4U G7C G21C yielded a self-cleavage of 0.1.
Variant A4U G7C U20A G22U U28G G35U has a self-cleavage of 1.81.
For A4U G7C U32A G40A, the self-cleavage was 0.05.
For A4U G7U A11G A14C C23A G30A C31U C42G, the self-cleavage was 0.01.
A4U G7U A12U G19A G36A gave a self-cleavage of 0.04.
In the case of A4U G7U A25C, the self-cleavage is reported as 0.05.
With A4U G7U C31G the self-cleavage was 0.08.
Work on A4U G17A C31A A39C yielded a self-cleavage of 0.
In the case of A4U G17A G21U C42G, the self-cleavage is reported as 0.05.
With A4U G17A U28G the self-cleavage was 0.04.
With A4U G17C C37G G40A C45A the self-cleavage was 0.01.
A4U G17C G35C U38A showed a self-cleavage of 0.18.
Variant A4U G17C U20G has a self-cleavage of 0.04.
A4U G17U G36A gave a self-cleavage of 0.04.
Work on A4U G19A A24U yielded a self-cleavage of 0.1.
With A4U G19C U20G the self-cleavage was 0.06.
For A4U G19U G21A, the self-cleavage was 0.09.
With A4U G21A A25G G35U the self-cleavage was 0.18.
For A4U G21C C23G A26U G36A, the self-cleavage was 0.08.
With A4U G21C G22A G33A U38A C45A the self-cleavage was 0.01.
With A4U G21C G30A U32G G33A the self-cleavage was 0.02.
A4U G21U A26U A39C G40A showed a self-cleavage of 0.08.
A4U G21U G22A G27A G29U gave a self-cleavage of 0.84.
Work on A4U G22A A39G yielded a self-cleavage of 0.1.
A4U G22A U34A C37G showed a self-cleavage of 0.11.
A4U G22C G35C showed a self-cleavage of 0.08.
In the case of A4U G22C U38C, the self-cleavage is reported as 0.05.
A4U G27C G40U showed a self-cleavage of 0.07.
In the case of A4U G27C U43G C45A, the self-cleavage is reported as 0.31.
A4U G27U G33U A39U showed a self-cleavage of 0.04.
A4U G29C A41C gave a self-cleavage of 0.05.
For A4U G29U U32A G33U, the self-cleavage was 0.03.
For A4U G30U U38C, the self-cleavage was 0.03.
A4U G33A C46U gave a self-cleavage of 0.05.
Work on A4U G40U G44U yielded a self-cleavage of 0.18.
A4U G40U U43C gave a self-cleavage of 0.05.
Work on A4U U9A C13A C15U A26U G29U U34G G44C yielded a self-cleavage of 0.26.
Variant A4U U9A C18A G40A has a self-cleavage of 0.24.
A4U U9A G19A G35U showed a self-cleavage of 0.39.
A4U U9C A12G G22A showed a self-cleavage of 0.01.
A4U U9C A24C G36C U38C gave a self-cleavage of 0.
For A4U U9C A24U A41G, the self-cleavage was 0.02.
A4U U9C C10G G17U U32A G33A U38A showed a self-cleavage of 0.01.
A4U U9C C23U U28C U38G gave a self-cleavage of 0.01.
A4U U9G G19U G36U C45U C46A showed a self-cleavage of 0.14.
In the case of A4U U9G G27U C31A U34A G44A, the self-cleavage is reported as 0.01.
A4U U9G G29A showed a self-cleavage of 0.05.
With A4U U20C C46G the self-cleavage was 0.06.
With A4U U20C U28C the self-cleavage was 0.05.
Variant A4U U20G A25G U28G has a self-cleavage of 0.01.
For A4U U20G C23U G27C U38G, the self-cleavage was 0.01.
A4U U20G G21U G29A C45U showed a self-cleavage of 0.14.
Work on A4U U20G G30A U34G yielded a self-cleavage of 0.02.
For A4U U20G U32C U34A G35U G44A, the self-cleavage was 0.03.
Variant A4U U28A A41G C45A has a self-cleavage of 0.01.
Variant A4U U28C A41U has a self-cleavage of 0.23.
A4U U28C G44U gave a self-cleavage of 0.09.
For A4U U32A G40C, the self-cleavage was 0.02.
Work on A4U U34G G35U yielded a self-cleavage of 0.05.
Work on A4U U38A C46A yielded a self-cleavage of 0.02.
A4U U38A U43C showed a self-cleavage of 0.
For G5A A6C A12G U32A G40U, the self-cleavage was 0.03.
For G5A A6C A39U, the self-cleavage was 1.65.
G5A A6C C8A G40A gave a self-cleavage of 0.15.
G5A A6C C10G C23U G29C showed a self-cleavage of 0.02.
In the case of G5A A6C G21C, the self-cleavage is reported as 0.05.
G5A A6C U20C showed a self-cleavage of 0.26.
G5A A6C U34G showed a self-cleavage of 0.03.
Work on G5A A6G A39U yielded a self-cleavage of 0.05.
With G5A A6G C8U A16C G22A G27U the self-cleavage was 0.05.
Variant G5A A6G C45U has a self-cleavage of 0.28.
For G5A A6G G22A C23A, the self-cleavage was 0.04.
Work on G5A A6G G29U yielded a self-cleavage of 0.13.
In the case of G5A A6G G40U, the self-cleavage is reported as 0.22.
In the case of G5A A6G U28A G33U, the self-cleavage is reported as 0.07.
Variant G5A A6G U32C has a self-cleavage of 0.03.
In the case of G5A A6U A24U, the self-cleavage is reported as 0.1.
In the case of G5A A6U C8G A41G U43A, the self-cleavage is reported as 0.04.
G5A A6U C18U G19C U38G A39U G40U gave a self-cleavage of 0.08.
For G5A A6U G19A U28C G30C, the self-cleavage was 0.01.
In the case of G5A A6U U9A C13A U20C U28A G33U C45G, the self-cleavage is reported as 0.03.
Variant G5A A11C A16U G17C C31U A41C has a self-cleavage of 0.
G5A A11C C18A gave a self-cleavage of 0.05.
Work on G5A A11C C46G yielded a self-cleavage of 0.03.
G5A A11G A14U G21U C23U gave a self-cleavage of 0.02.
Work on G5A A11G G36A yielded a self-cleavage of 0.04.
Work on G5A A11U A14C G21A U28C yielded a self-cleavage of 0.01.
Variant G5A A11U G29A G30C G35A has a self-cleavage of 0.04.
G5A A11U U38C showed a self-cleavage of 0.02.
G5A A12C A25G showed a self-cleavage of 0.05.
Work on G5A A12C G21U G35A yielded a self-cleavage of 0.05.
With G5A A12C U34C G44A the self-cleavage was 0.02.
In the case of G5A A12C U34G, the self-cleavage is reported as 0.01.
In the case of G5A A12G A26G, the self-cleavage is reported as 0.07.
G5A A12G A39U C46U showed a self-cleavage of 0.01.
With G5A A12G A41C the self-cleavage was 0.06.
For G5A A12G C15U G29C U38A, the self-cleavage was 0.29.
